Laboratory results as given in paper PMC4336329 (PLoS ONE, 2015).
In all, about 310,000 compounds went through this assay and about 2,200 (0.71%) showed an effect of 50% or more. The effect is printed as a negative number. Some of the results follow.

Target: human ether-à-go-go-related gene (hERG) potassium channel (human, UniProt Q12809)
Assay: primary screen, population patch clamp on CHO cells stably expressing hERG

Chain of human ether-à-go-go-related gene (hERG) potassium channel (Q12809 whole entry, looked up): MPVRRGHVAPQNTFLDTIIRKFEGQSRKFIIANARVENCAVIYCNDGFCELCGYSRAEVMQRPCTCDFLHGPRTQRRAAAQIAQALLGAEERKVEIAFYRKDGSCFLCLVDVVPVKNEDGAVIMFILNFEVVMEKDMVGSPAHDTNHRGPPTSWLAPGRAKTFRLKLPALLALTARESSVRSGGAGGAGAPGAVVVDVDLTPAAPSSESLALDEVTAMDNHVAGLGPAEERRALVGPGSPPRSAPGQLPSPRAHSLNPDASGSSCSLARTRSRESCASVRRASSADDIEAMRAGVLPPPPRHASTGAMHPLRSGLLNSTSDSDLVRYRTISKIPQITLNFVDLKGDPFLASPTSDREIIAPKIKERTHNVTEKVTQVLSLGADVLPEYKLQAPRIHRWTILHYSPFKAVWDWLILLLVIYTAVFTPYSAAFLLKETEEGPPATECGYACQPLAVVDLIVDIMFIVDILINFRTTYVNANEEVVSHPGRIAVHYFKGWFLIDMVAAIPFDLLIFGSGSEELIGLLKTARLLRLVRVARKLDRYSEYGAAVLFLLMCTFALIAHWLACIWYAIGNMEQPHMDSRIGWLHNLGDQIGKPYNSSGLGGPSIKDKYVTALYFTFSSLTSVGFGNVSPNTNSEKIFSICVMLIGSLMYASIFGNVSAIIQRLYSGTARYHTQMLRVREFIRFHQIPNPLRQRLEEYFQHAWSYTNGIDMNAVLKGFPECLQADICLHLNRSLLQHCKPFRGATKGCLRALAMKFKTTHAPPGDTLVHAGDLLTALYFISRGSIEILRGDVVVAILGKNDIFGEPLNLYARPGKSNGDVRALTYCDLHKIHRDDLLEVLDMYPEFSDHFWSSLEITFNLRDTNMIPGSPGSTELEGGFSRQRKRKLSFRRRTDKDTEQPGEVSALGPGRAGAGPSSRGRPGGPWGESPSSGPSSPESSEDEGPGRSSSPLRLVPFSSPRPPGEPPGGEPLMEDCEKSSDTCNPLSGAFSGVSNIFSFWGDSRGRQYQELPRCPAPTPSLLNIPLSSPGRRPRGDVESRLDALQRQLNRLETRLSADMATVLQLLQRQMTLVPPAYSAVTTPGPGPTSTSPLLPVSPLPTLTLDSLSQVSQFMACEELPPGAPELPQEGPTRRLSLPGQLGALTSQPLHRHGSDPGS

Structure (SMILES)	hERG current change (%, negative = inhibition) at 1uM
Nc1c(Nc2ccccc2)c2ccccc2oc1=O	7.71%
CCn1cc([N+](=O)[O-])c(C(=O)N2N=C(c3ccc(Cl)c(Cl)c3)CC2c2ccccc2O)n1 (stereo not drawn)	0.0756%
CCCSc1nc(C)c(CC(=O)O)c(=O)[nH]1	12.6%
O=C(CSc1nc2cccnc2n1Cc1ccccc1)N1CCCC1	-48.8%
CCCC(=O)Nc1sc(C)c(-c2ccc(C(C)CC)cc2)c1C#N (stereo not drawn)	14.2%
CCOC(=O)N1CCN(C(=O)CSc2nc3c(cnn3-c3ccccc3)c(=O)[nH]2)CC1	5.15%
Cc1ccc([N+](=O)[O-])c(-c2n[nH]c(=S)n2-c2cccc(Cl)c2)c1	18.1%
CN(C)/C=C/c1onc(-c2c(Cl)cccc2Cl)c1C#N	9.06%
Cc1cc(NC(=O)C(C)SCC(=O)OCC(=O)N(C)c2ccccc2)no1 (stereo not drawn)	3.32%
COC(c1ccccc1)c1nnc(CCC(=O)N2CCN(C3CCCC3)CC2)o1 (stereo not drawn)	-33.3%
Cc1nn(-c2ccc(F)cc2)c(Cl)c1/C=C/C(=O)OCC(=O)Nc1c(F)c(F)c(F)c(F)c1F	4.99%
COCCNS(=O)(=O)c1ccc(F)c(OC)c1	5.01%
Cc1c(C(=O)OC(C)C)nnn1-c1nonc1N	7.09%
CCC(=O)N1CC(=O)Nc2ccc(F)cc2C1c1ccccc1 (stereo not drawn)	14.8%
Cn1c(-c2ccc[nH]c2=O)nc2cc(Cl)ccc21	15.7%
NC(=O)CC(NC(=O)Cc1ccc(Br)cc1)c1ccc(NC2CCCC2)c([N+](=O)[O-])c1 (stereo not drawn)	3.31%
O=C(COC(=O)C1CCN(c2ccc(C(F)(F)F)cn2)CC1)NCc1ccccc1	11.1%
O=C(c1cccc(S(=O)(=O)N2CCN(c3ccccc3)CC2)c1)N1CCCCCCC1	-4.16%
COc1ccc(-n2c(SCC(=O)Nc3ccc4c(c3)OCO4)nc3ccccc3c2=O)cc1	2.4%
Cc1ccc(NC(=O)C2CC(=O)N(C(C)C)C2)cc1C (stereo not drawn)	13.8%
Cc1cccc(N2CCN(S(=O)(=O)c3ccc4c(c3)CC(=O)N4C)CC2)c1C	17.4%
COc1ccc(N2CCN(C(=O)CCc3c[nH]c4ccccc34)CC2)cc1	8.33%

Structure (SMILES)	hERG current change (%, negative = inhibition) at 1uM
Clc1ccc2[nH]c3c(N4CCC5(CC4)OCCO5)ncnc3c2c1	-9.17%
Cc1ccccc1-c1nnc(SCC(=O)NC2CCCC2)n1C	4.56%
CC(C)C[C@H](NC(=O)OC(C)(C)C)C(=O)N/N=C/c1ccc2nccnc2c1	1.92%
CN(C(=O)Cn1cnc([N+](=O)[O-])n1)C1CCCCC1	5.68%
O=C(Nc1nc(-c2ccncc2)cs1)c1ccc(F)cc1	-7.65%
Cc1ccc(S(=O)(=O)NNC(=O)c2cc([N+](=O)[O-])c(C)c([N+](=O)[O-])c2)cc1	16%
CCC(C(=O)c1ccccc1)P(=O)(NN)c1ccccc1 (stereo not drawn)	13.7%
NS(=O)(=O)c1ccc2c(c1)C1C=CCC1C(C1CC=CCC1)N2 (stereo not drawn)	12.2%
Cc1cccnc1NC(=O)c1cccc(S(=O)(=O)N2CCCC2)c1	-5.52%
COc1cc(NC(=O)COC(=O)c2ccccc2F)cc(OC)c1	5.51%
CCN1C(=O)c2cccc3c(S(=O)(=O)Nc4ccccc4OC)ccc1c23	-1.68%
Cn1c(Cc2ccccc2)nnc1SCC(=O)NC1CCCCC1	13.5%
CC1(C)S[C@@H]2[C@H](NC(=O)[C@H](N)c3ccccc3)C(=O)N2[C@H]1C(=O)OC1OC(=O)c2ccccc21.Cl (stereo partly drawn)	3.19%
CCOC(=O)CN1CC23C=CC(O2)C(C(=O)NCc2cccs2)C3C1=O (stereo not drawn)	6.68%
COC(=O)c1sc(NC(=S)NC(=O)c2ccccc2)nc1C	7.92%
CCOC(=O)N1CCN(C(=O)C(C)c2ccc([N+](=O)[O-])cc2)CC1 (stereo not drawn)	3.63%
Cc1c(Cl)cccc1NC(=O)NCc1ccc(F)cc1	15.7%
N/C(=N\OC(=O)Cc1cccc2ccccc12)c1ccccn1	10%
Nn1c(-c2cccc([N+](=O)[O-])c2)nc2ccccc2c1=O	6.24%
CCc1nnc(NS(=O)(=O)c2ccc(NC(=S)NC(=O)/C=C/c3ccc([N+](=O)[O-])cc3)cc2)s1	17.3%
COc1ccccc1-n1c(SCC(=O)NC(C)(C)C)nnc1-c1ccco1	-1.57%
COc1ccc(C(=O)NCCc2nc3cc([N+](=O)[O-])ccc3n2C)cc1	-8.03%

Structure (SMILES)	hERG current change (%, negative = inhibition) at 1uM
COc1cc(C)ccc1OCCOc1ccccc1Cl	13.7%
CCCOc1ccc(CC(=O)NCC2(c3ccccc3)CCOCC2)cc1OC	14.3%
COc1cc(SC)ccc1C(=O)Nc1c(C)cccc1C	-6.97%
O=C(CCNS(=O)(=O)c1ccccc1)OCc1nc2ccsc2c(=O)[nH]1	3.52%
CN(C)C(=O)CSc1nc2ccccc2c(=O)[nH]1	9.1%
Cc1cc(C(=O)NC2CCCc3c2cnn3-c2ccc(C)c(C)c2)no1 (stereo not drawn)	1.86%
O=C(CSc1ccc2nnc(-c3ccccn3)n2n1)Nc1cccc(F)c1	-7.83%
Cc1cc(C)n2nc(C(=O)N3CCCC(Nc4ccc(C(C)C)cc4)C3)cc2n1 (stereo not drawn)	8.9%
Cc1cc(C)c(OCC(=O)N2CC=C(c3ccccc3)CC2)c(C)c1	7.23%
CC(C)c1ccc(NC(=O)C2CC2c2ccccc2)cc1 (stereo not drawn)	15.5%
Cc1ccc(-n2c(C)cc(/C=N/NC(=O)c3ccncc3)c2C)cc1	5.82%
NC(=O)c1ccc(NC(=O)CCCNC(=O)c2ccc(Cl)cc2)cc1	16.6%
COc1cccc(OC)c1CNC(=O)C1CCC(=O)N(CC2CCCCC2)C1 (stereo not drawn)	7.23%
CCOc1ccc(CCNC(=O)c2cccc(S(=O)(=O)N3CCN(C(C)=O)CC3)c2)cc1OCC	-6.2%
Cc1cc(C)cc(NC(=O)OCCN2CCN(Cc3ccccc3)CCC2=O)c1	2.55%
Cl.Clc1cccc2c3c([nH]c12)CCNC3	15%
COc1cccc(NC(=O)C2CCN(S(=O)(=O)c3ccccc3)CC2)c1	8.41%
CCCCn1c(N)c(N(CC(C)C)C(=O)c2ccc([N+](=O)[O-])o2)c(=O)[nH]c1=O	6.81%
CNC(=O)c1sccc1SCc1ccc(Cl)cc1Cl	3.67%
CCN1CCCC1CNC(=O)CCc1nc(-c2ccc(C)cc2)no1 (stereo not drawn)	0.531%
CCCc1ncc(C(=O)c2ccc(OC)cc2)n1C	10.8%
Cc1cc(Cl)c2oc(C(=O)N(C)CCCCN3CCOCC3)c(C)c2c1	1.07%

Structure (SMILES)	hERG current change (%, negative = inhibition) at 1uM
O=C(c1ccco1)N1CCN(C(c2ccccc2Cl)c2nnnn2Cc2cccs2)CC1 (stereo not drawn)	-16.3%
CCOC(=O)c1cccc(NC(=O)Cn2cnc3c2c(=O)n(C)c(=O)n3C)c1	-4.49%
CCCC(=O)Nc1ccc(Cl)c(NC(=O)c2cccc(OC)c2)c1	-0.138%
Cc1c(C(=O)OC/C(O)=C(\C#N)c2nc3ccccc3[nH]2)oc2ccccc12	7%
O=c1oc2c(CN3CCCCC3)c(O)ccc2c2c1CCCC2	5.8%
COc1ccc2cc(C(=O)N(C)Cc3ccccc3)[nH]c2c1	15.7%
Cc1cc(C)n(-c2nnc(C)n2/N=C/c2cc(Br)ccc2OCc2ccccc2)n1	9.55%
O=C(NCc1ccc(F)cc1)Nc1cccc([N+](=O)[O-])c1	0.529%
C[n+]1cc[nH]c1SCC(=O)c1ccc(Cl)cc1.[Br-]	10.2%
CN(C(=O)CSc1nnnn1-c1ccc(O)cc1)C1CCS(=O)(=O)C1 (stereo not drawn)	19.7%
CCCCNC(=O)N1CCN(c2ncccn2)CC1	8.42%
Cc1ccc(-n2c(SCC(=O)N/N=C/c3c(C)nn(-c4ccccc4)c3C)nc3ccccc3c2=O)cc1	0.705%
COc1cccc(OCC(=O)Nc2cc(NC(=O)COc3cccc(OC)c3)cc(C(=O)O)c2)c1	14.4%
CCCNC(=O)NC(=O)COC(=O)/C=C/c1cc(Br)ccc1F	1.61%
N=c1oc2cc(O)ccc2cc1C(=O)Nc1ccc(Cl)cc1	19.6%
CCc1ccc(N2C(=O)NC(=O)/C(=C\c3cc(C)n(-c4cc(C(=O)O)cc(C(=O)O)c4)c3C)C2=O)cc1	10.9%
CCOc1ccc2nc(NC(NC(C)=O)(C(=O)OC)C(F)(F)F)sc2c1 (stereo not drawn)	-0.806%
Cc1ccsc1/C=C/c1ccc2cccc(O)c2n1	12.1%
COC(=O)c1ccc(-n2c(C)cc(C(=O)CSc3ccc(NC(C)=O)cc3)c2C)cc1	12.5%
CCC12CN3CCN(CC(C3)/C1=N\NC(=O)Nc1ccccc1)C2	9.58%
Cc1ccc2nc(SCC(=O)N3CCN(c4ccccc4)CC3)nc(=O)n2c1	-12.4%
